Assay results from publication PMC4336329 (PLoS ONE, 2015).
Among all 310,000 compounds or so, about 14,000 (4.5%) showed an effect of 50% or more. The effect is printed as a negative number. The list shows a part of the results.

These molecules were tested against human ether-à-go-go-related gene (hERG) potassium channel (human, UniProt Q12809) (assay: primary screen, population patch clamp on CHO cells stably expressing hERG).
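Note: peak tail current of the secondary pulse compared with the same well before compound.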

Sequence of human ether-à-go-go-related gene (hERG) potassium channel (Q12809 whole entry, looked up): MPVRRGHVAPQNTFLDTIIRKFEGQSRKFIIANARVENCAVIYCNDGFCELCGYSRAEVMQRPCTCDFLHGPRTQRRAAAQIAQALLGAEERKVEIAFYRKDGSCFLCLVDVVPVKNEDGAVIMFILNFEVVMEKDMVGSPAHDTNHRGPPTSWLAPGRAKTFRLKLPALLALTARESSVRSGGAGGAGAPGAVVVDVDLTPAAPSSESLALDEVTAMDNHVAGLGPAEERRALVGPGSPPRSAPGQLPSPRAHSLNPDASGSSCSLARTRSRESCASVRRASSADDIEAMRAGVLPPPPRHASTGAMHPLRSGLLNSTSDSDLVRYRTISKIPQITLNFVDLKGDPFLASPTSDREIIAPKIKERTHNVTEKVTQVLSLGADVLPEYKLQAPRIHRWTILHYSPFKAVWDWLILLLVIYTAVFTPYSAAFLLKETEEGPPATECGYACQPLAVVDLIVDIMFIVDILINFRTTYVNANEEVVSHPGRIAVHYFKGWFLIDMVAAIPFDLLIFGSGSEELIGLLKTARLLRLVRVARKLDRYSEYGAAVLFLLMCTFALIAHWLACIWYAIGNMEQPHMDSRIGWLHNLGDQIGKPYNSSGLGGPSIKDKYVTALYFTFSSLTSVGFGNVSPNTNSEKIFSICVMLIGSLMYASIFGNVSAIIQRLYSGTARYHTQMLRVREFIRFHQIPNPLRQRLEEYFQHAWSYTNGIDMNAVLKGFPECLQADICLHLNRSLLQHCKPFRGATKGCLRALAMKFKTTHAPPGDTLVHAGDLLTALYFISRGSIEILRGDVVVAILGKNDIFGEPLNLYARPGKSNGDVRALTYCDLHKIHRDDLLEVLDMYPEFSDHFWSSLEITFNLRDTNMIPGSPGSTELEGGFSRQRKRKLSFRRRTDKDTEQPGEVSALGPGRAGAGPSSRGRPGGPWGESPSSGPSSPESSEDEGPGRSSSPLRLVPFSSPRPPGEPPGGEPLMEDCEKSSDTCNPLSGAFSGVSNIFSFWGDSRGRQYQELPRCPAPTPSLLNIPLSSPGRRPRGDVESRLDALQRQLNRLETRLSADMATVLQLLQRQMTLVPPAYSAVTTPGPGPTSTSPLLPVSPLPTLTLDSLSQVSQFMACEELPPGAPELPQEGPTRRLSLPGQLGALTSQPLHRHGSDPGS

SMILES	hERG current change (%, negative = inhibition) at 10uM [%]
O=c1nc(-c2ccccc2)n(-c2ccccc2)c2ncccc12	5.57
COc1ccc(NC(=O)C2CCN(C(=O)c3ccco3)CC2)c(OC)c1	22.3
Cc1cc(C)cc(NC(=O)Cn2cc(C=O)c3ccccc32)c1	17.9
CC(C)c1nnc(NC(=O)Cc2cccs2)s1	1.06
CCOC(=O)[C@H]1[C@H]2COc3ccc(Cl)cc3[C@@H]2N2C(=O)CN(Cc3ccco3)C(=O)[C@@]12C	-6.23
COc1ccc(NC(=O)C2CCCN(c3cc(C)nc4ncnn34)C2)cc1 (centres unmarked)	-12.5
CCN(CC)C(=O)C[n+]1ccc(C(N)=O)cc1.[Cl-]	4.26
CSC[C@H](NC(=O)COc1cc2c(c3oc(=O)c(C)c(C)c13)CCC(C)(C)O2)C(=O)O	17.5
COc1ccc(CCNS(=O)(=O)c2cc(/C=C/C(=O)O)ccc2C)cc1OC	8.58
CCCCn1nc(C(=O)NCC(c2cccs2)N2CCOCC2)c2ccccc2c1=O (centres unmarked)	-44.7
OCCCNCc1ccc(N(c2ccccc2)c2ccccc2)cc1	-18.4
CC(=O)NC12CC3CC(C1)CC(C(=O)OCC(=O)Nc1ncc(Cl)c(C)c1Cl)(C3)C2	-6.22
CC1CCCCN1C(=O)Cc1ccc(F)cc1 (centres unmarked)	-5.19
Cc1ccc(S(=O)(=O)N2CCC(C(=O)N3CCC3)CC2)cc1	8.76
COc1ccc(-c2cn3cccnc3n2)cc1NS(=O)(=O)c1ccccc1	7.82
Cc1noc(/C=C/N(C)C)c1S(=O)(=O)N1CCC(C(=O)NC(C)(C)C)CC1	18.8
CCOc1cc2c(cc1OC)C(NC(=O)C(F)(F)F)CC2=O (centres unmarked)	-0.243
COc1ccc(NC(=O)CN2CCC(NC(=O)C3CCCCC3)CC2)c([N+](=O)[O-])c1	23.8
CCN1C(=O)c2ccccc2S(=O)c2ccc(C(=O)NCc3ccc(OC)cc3)cc21 (centres unmarked)	-16
Cc1cc(SCC(=O)c2cccs2)n2nc(C)c(-c3ccccc3)c2n1	-9.69
N#C/C(=C/c1cn(-c2ccccc2)nc1-c1cccc(OCc2ccc(F)cc2)c1)C(=O)NCCCn1ccnc1	10.1
COc1c(C)cc(Br)cc1C(=O)Nc1ccc(Cc2ccncc2)cc1	-3.5

SMILES	hERG current change (%, negative = inhibition) at 10uM [%]
CN(c1ccc(C(=O)Nc2ccc3c(c2)n(C)c(=O)n3C)cc1)S(C)(=O)=O	12.2
Cn1c(O)c(C=NC2CCCCC2)c(=O)[nH]c1=S	-5.38
NC(=O)COC(=O)CCCc1nc2ccccc2s1	2.57
CCOC(=O)c1ccc(NC(=O)C(=O)NCc2ccco2)cc1	15.7
CCOc1ccc(/C=N\NC(=O)CC(=O)NCCc2ccccc2)cc1	8.52
CN(CCNC(=O)CCCOc1cc(=O)n(C)c2ccccc12)Cc1ccccc1	0.455
C=C1C(=O)C=C[C@]2(C)C[C@@H]3OC(=O)[C@](C)(O)[C@H]3C[C@@H]12	0.224
COc1ccc(-n2cnc3cc(C(=O)N4CCC5(CC4)OCCO5)ccc32)cc1	-42.8
CCC(C)NC(=O)c1c(N)n(/N=C/c2cccnc2)c2nc3ccccc3nc12 (centres unmarked)	6.77
CCOC(=O)c1cc2n(n1)C(C(F)(F)C(F)(F)F)CC(C)N2 (centres unmarked)	5.72
O=C(NCC(=O)N(c1ccc2c(c1)OCO2)C(C(=O)NC1CCCC1)c1cccs1)c1ccco1 (centres unmarked)	8.55
CC(=O)C1=C(C)NC(SCC(N)=O)=C(C#N)C1c1ccco1 (centres unmarked)	28.2
CCCS(=O)(=O)N1CCCC(C(=O)NCCN(C)Cc2ccccc2)C1 (centres unmarked)	-8.41
CCOc1ccc(-n2c(=O)[nH]cc(C(=O)Nc3ccc(OC)c(OC)c3)c2=O)cc1	11.9
Cc1ccc(N2CC(NC(=O)C3CC3)CC2=O)cc1 (centres unmarked)	-21.4
COC(=O)C1=C(C(=O)OC)[C@@H]2N(Cc3ccccc3)c3ccccc3[C@@]23C[C@@H](C(=O)OC)N(C(=O)NC2CCCCC2)C3=N1	-12.1
Cc1ccc(C(=O)N/C(=C\c2cn(S(=O)(=O)N(C)C)c3ccccc23)C(=O)NCCCN2CCOCC2)cc1	-18.7
CSCC[C@H](NC(=O)[C@@H]1Cc2ccccc2CN1)C(=O)Nc1cccc(C)c1	-40.1
COC(=O)[C@H](C)NC(=O)Nc1ccc(OC)cc1OC	-5.46
CCN1CCn2c3c(c4cccc(C)c42)CCCC31.Cl (centres unmarked)	-28.9
CCc1c(C)sc(NC(=O)OC)c1C(=O)N1CCCCC1	-4.94
CSc1nc(Cl)cc(Nc2ccc(O)cc2)n1	-16.7
